Laboratory results as given in US11000038B2, “Pyridone compounds and agricultural and horticultural fungicides containing the same as active ingredients” (priority 2017, dated 2021).

Key:
[1] = tested on: rice blast fungi (Magnaporthe grisea); format: in vivo; settings: spray treatment of rice plants; for Test A control value class (rice blast): control value=100{1-(n/3)}; for Test A control value: rice blast
[2] = tested on: cucumber anthracnose fungi (Colletotrichum orbiculare); assay: Test Example H: cucumber anthracnose, spray treatment of cucumber plants; settings: for Test H control value class (cucumber anthracnose): 250 ppm spray, 2.5 ml/pot, cucumber Sagami Hanjiro, 6 to 10 days from inoculation; for Test H control value: cucumber anthracnose, 250 ppm spray (2.5 ml/pot), 6 to 10 days after inoculation
[3] = tested on: tomato late blight fungi (Phytophthora infestans); format: in vivo; settings: spray treatment of tomato plants; for Test F control value class (tomato late blight): control value=100{1-(n/3)}; for Test F control value: tomato late blight

Cc1cn(C(C)C(C)C)c(-c2c(F)cc(F)cc2F)c(C)c1=O (stereo not drawn) [Compound 152]
Test A control value class (rice blast) [1]: H (H shows the control value of more than 50%)
Test H control value class (cucumber anthracnose) [2]: H (H shows the control value of more than 50%)
Test F control value class (tomato late blight) [3]: L (L shows the control value of 50% or less)

CC1CCCCC1n1cc(Cl)c(=O)c(Cl)c1-c1c(F)cc(F)cc1F (stereo not drawn) [Compound 153]
Test A control value class (rice blast) [1]: H (H shows the control value of more than 50%)
Test H control value class (cucumber anthracnose) [2]: L (L shows the control value of 50% or less)
Test F control value class (tomato late blight) [3]: L (L shows the control value of 50% or less)

CC1CCCCC1n1cc(Cl)c(=O)c(Br)c1-c1c(F)cc(F)cc1F (stereo not drawn) [Compound 154]
Test A control value class (rice blast) [1]: H (H shows the control value of more than 50%)
Test H control value class (cucumber anthracnose) [2]: L (L shows the control value of 50% or less)
Test F control value class (tomato late blight) [3]: L (L shows the control value of 50% or less)

COc1cc(F)c(-c2c(C)c(=O)c(C)cn2C(C)C(C)C)c(F)c1 (stereo not drawn) [Compound 155]
Test A control value class (rice blast) [1]: H (H shows the control value of more than 50%)
Test H control value class (cucumber anthracnose) [2]: H (H shows the control value of more than 50%)
Test F control value class (tomato late blight) [3]: L (L shows the control value of 50% or less)

Cc1c(-c2c(F)cc(F)cc2F)n(C(C)C(C)C)cc(Cl)c1=O (stereo not drawn) [Compound 156]
Test A control value class (rice blast) [1]: H (H shows the control value of more than 50%)
Test H control value class (cucumber anthracnose) [2]: H (H shows the control value of more than 50%)
Test F control value class (tomato late blight) [3]: L (L shows the control value of 50% or less)

CC1CCCCC1n1cc(Br)c(=O)c(Cl)c1-c1c(F)cc(F)cc1F (stereo not drawn) [Compound 159]
Test A control value class (rice blast) [1]: L (L shows the control value of 50% or less)
Test H control value class (cucumber anthracnose) [2]: L (L shows the control value of 50% or less)
Test F control value class (tomato late blight) [3]: L (L shows the control value of 50% or less)

CC1CCCCC1n1cc(Br)c(=O)c(Br)c1-c1c(F)cc(F)cc1F (stereo not drawn) [Compound 160]
Test A control value class (rice blast) [1]: L (L shows the control value of 50% or less)
Test H control value class (cucumber anthracnose) [2]: L (L shows the control value of 50% or less)
Test F control value class (tomato late blight) [3]: L (L shows the control value of 50% or less)

O=c1c(Cl)cn(CC(F)F)c(-c2c(F)cc(F)cc2F)c1Br [Compound 161]
Test A control value class (rice blast) [1]: L (L shows the control value of 50% or less)
Test H control value class (cucumber anthracnose) [2]: L (L shows the control value of 50% or less)
Test F control value class (tomato late blight) [3]: L (L shows the control value of 50% or less)

Cc1cccc(-n2cc(Br)c(=O)c(Cl)c2-c2c(F)cc(F)cc2F)c1C [Compound 163]
Test A control value class (rice blast) [1]: H (H shows the control value of more than 50%)
Test H control value class (cucumber anthracnose) [2]: H (H shows the control value of more than 50%)
Test F control value class (tomato late blight) [3]: L (L shows the control value of 50% or less)

Cc1cccc(-n2cc(Br)c(=O)c(Br)c2-c2c(F)cc(F)cc2F)c1C [Compound 164]
Test A control value class (rice blast) [1]: H (H shows the control value of more than 50%)
Test H control value class (cucumber anthracnose) [2]: H (H shows the control value of more than 50%)
Test F control value class (tomato late blight) [3]: L (L shows the control value of 50% or less)

CCC(C)Cn1cc(Cl)c(=O)c(Br)c1-c1c(F)cc(F)cc1F (stereo not drawn) [Compound 165]
Test A control value class (rice blast) [1]: H (H shows the control value of more than 50%)
Test H control value class (cucumber anthracnose) [2]: H (H shows the control value of more than 50%)
Test F control value class (tomato late blight) [3]: H (H shows the control value of more than 50%)

CCC(C)Cn1cc(Br)c(=O)c(Cl)c1-c1c(F)cc(F)cc1F (stereo not drawn) [Compound 166]
Test A control value class (rice blast) [1]: H (H shows the control value of more than 50%)
Test H control value class (cucumber anthracnose) [2]: H (H shows the control value of more than 50%)
Test F control value class (tomato late blight) [3]: L (L shows the control value of 50% or less)

CCC(C)Cn1cc(Br)c(=O)c(Br)c1-c1c(F)cc(F)cc1F (stereo not drawn) [Compound 167]
Test A control value class (rice blast) [1]: H (H shows the control value of more than 50%)
Test H control value class (cucumber anthracnose) [2]: H (H shows the control value of more than 50%)
Test F control value class (tomato late blight) [3]: L (L shows the control value of 50% or less)

CCC(C)Cn1cc(Cl)c(=O)c(Br)c1-c1c(F)cc(OC)cc1F (stereo not drawn) [Compound 168]
Test A control value class (rice blast) [1]: H (H shows the control value of more than 50%)
Test H control value class (cucumber anthracnose) [2]: H (H shows the control value of more than 50%)
Test F control value class (tomato late blight) [3]: L (L shows the control value of 50% or less)

CCC(C)Cn1cc(Br)c(=O)c(Cl)c1-c1c(F)cc(OC)cc1F (stereo not drawn) [Compound 169]
Test A control value class (rice blast) [1]: H (H shows the control value of more than 50%)
Test H control value class (cucumber anthracnose) [2]: H (H shows the control value of more than 50%)
Test F control value class (tomato late blight) [3]: H (H shows the control value of more than 50%)

COc1cc(F)c(-c2c(Br)c(=O)c(Cl)cn2C2CCCCC2C)c(F)c1 (stereo not drawn) [Compound 170]
Test A control value class (rice blast) [1]: H (H shows the control value of more than 50%)
Test H control value class (cucumber anthracnose) [2]: L (L shows the control value of 50% or less)
Test F control value class (tomato late blight) [3]: L (L shows the control value of 50% or less)

COc1cc(F)c(-c2c(Cl)c(=O)c(Br)cn2C2CCCCC2C)c(F)c1 (stereo not drawn) [Compound 171]
Test A control value class (rice blast) [1]: L (L shows the control value of 50% or less)
Test H control value class (cucumber anthracnose) [2]: L (L shows the control value of 50% or less)
Test F control value class (tomato late blight) [3]: L (L shows the control value of 50% or less)

Cc1cccc(-n2cc(Cl)c(=O)c(Br)c2-c2c(F)cc(F)cc2F)c1C [Compound 172]
Test A control value class (rice blast) [1]: H (H shows the control value of more than 50%)
Test H control value class (cucumber anthracnose) [2]: H (H shows the control value of more than 50%)
Test F control value class (tomato late blight) [3]: H (H shows the control value of more than 50%)

Cc1cccc(-n2cc(Cl)c(=O)c(Cl)c2-c2c(F)cc(F)cc2F)c1C [Compound 173]
Test A control value class (rice blast) [1]: H (H shows the control value of more than 50%)
Test H control value class (cucumber anthracnose) [2]: H (H shows the control value of more than 50%)
Test F control value class (tomato late blight) [3]: L (L shows the control value of 50% or less)

CCOc1cc(F)c(-c2c(C)c(=O)c(C)cn2-c2ccccc2C)c(F)c1 [Compound 176]
Test A control value class (rice blast) [1]: H (H shows the control value of more than 50%)
Test H control value class (cucumber anthracnose) [2]: H (H shows the control value of more than 50%)
Test F control value class (tomato late blight) [3]: L (L shows the control value of 50% or less)

Cc1ccc(F)cc1-n1cc(Br)c(=O)c(Cl)c1-c1c(F)cc(F)cc1F [Compound 177]
Test A control value class (rice blast) [1]: H (H shows the control value of more than 50%)
Test H control value class (cucumber anthracnose) [2]: H (H shows the control value of more than 50%)
Test F control value class (tomato late blight) [3]: L (L shows the control value of 50% or less)

Cc1ccc(F)cc1-n1cc(Br)c(=O)c(Br)c1-c1c(F)cc(F)cc1F [Compound 178]
Test A control value class (rice blast) [1]: H (H shows the control value of more than 50%)
Test H control value class (cucumber anthracnose) [2]: H (H shows the control value of more than 50%)
Test F control value class (tomato late blight) [3]: L (L shows the control value of 50% or less)

Cc1ccc(F)cc1-n1cc(Cl)c(=O)c(Br)c1-c1c(F)cc(F)cc1F [Compound 179]
Test A control value class (rice blast) [1]: H (H shows the control value of more than 50%)
Test H control value class (cucumber anthracnose) [2]: H (H shows the control value of more than 50%)
Test F control value class (tomato late blight) [3]: L (L shows the control value of 50% or less)

COCCn1cc(Br)c(=O)c(Br)c1-c1c(F)cc(F)cc1F [Compound 213]
Test A control value [1]: L (L shows the control value of 50% or less)
Test H control value [2]: L (L shows the control value of 50% or less)
Test F control value [3]: L (L shows the control value of 50% or less)

COc1cc(F)c(-c2c(Br)c(=O)c(Cl)cn2CC(C)(C)C)c(F)c1 [Compound 214]
Test A control value [1]: H (H shows the control value of more than 50%)
Test H control value [2]: H (H shows the control value of more than 50%)
Test F control value [3]: H (H shows the control value of more than 50%)

COc1cc(F)c(-c2c(Cl)c(=O)c(Br)cn2CC(C)(C)C)c(F)c1 [Compound 215]
Test A control value [1]: H (H shows the control value of more than 50%)
Test H control value [2]: L (L shows the control value of 50% or less)
Test F control value [3]: L (L shows the control value of 50% or less)

Cc1ccccc1-n1cc(C)c(=S)c(C)c1-c1c(F)cc(F)cc1F [Compound 216]
Test A control value [1]: H (H shows the control value of more than 50%)
Test H control value [2]: H (H shows the control value of more than 50%)
Test F control value [3]: L (L shows the control value of 50% or less)

COc1ccc(C)c(-n2cc(Br)c(=O)c(Cl)c2-c2c(F)cc(F)cc2F)c1 [Compound 217, 5-bromo-3-chloro-1-(5-methoxy-2-methylphenyl)-2-(2,4,6-trifluorophenyl)pyridin-4(1H)-one]
Test A control value [1]: H (H shows the control value of more than 50%)
Test H control value [2]: H (H shows the control value of more than 50%)
Test F control value [3]: L (L shows the control value of 50% or less)

COc1ccc(C)c(-n2cc(Br)c(=O)c(Br)c2-c2c(F)cc(F)cc2F)c1 [Compound 218]
Test A control value [1]: H (H shows the control value of more than 50%)
Test H control value [2]: H (H shows the control value of more than 50%)
Test F control value [3]: L (L shows the control value of 50% or less)

Cc1c(-c2c(F)cc(F)cc2F)n(CC(C)C)cc(Br)c1=O [Compound 219]
Test A control value [1]: H (H shows the control value of more than 50%)
Test H control value [2]: H (H shows the control value of more than 50%)
Test F control value [3]: L (L shows the control value of 50% or less)
